According to the BET-seq Pho4 binding data (Le et al. 2018):
The list shows a part of the results. Values were computed here from the reads of four pooled replicates and scatter widely.

target: T1, Pho4 (S. cerevisiae) (UniProt P07270); test: relative binding free energy (BET-seq); higher = weaker binding; settings: reference: library average
T1 sequence: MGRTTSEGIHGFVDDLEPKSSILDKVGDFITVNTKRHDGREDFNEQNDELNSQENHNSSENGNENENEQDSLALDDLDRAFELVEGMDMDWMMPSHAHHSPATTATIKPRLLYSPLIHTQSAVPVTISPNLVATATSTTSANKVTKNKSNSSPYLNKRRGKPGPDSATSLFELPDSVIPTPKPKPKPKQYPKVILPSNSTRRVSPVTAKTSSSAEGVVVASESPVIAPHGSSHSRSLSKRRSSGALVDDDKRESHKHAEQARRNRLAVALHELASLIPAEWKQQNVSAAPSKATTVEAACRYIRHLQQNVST

Row | Sequence | relative binding free energy [kcal/mol]
1 | TGAGGCACGTGTTTTA | -0.16
2 | TTTGACACGTGTATGT | 0.06
3 | GTTGGCACGTGGGACA | -0.21
4 | CATAGCACGTGGAGGG | -0.08
5 | TATTGCACGTGTTATG | 0.04
6 | TCTTCCACGTGGGTTG | -0.08
7 | GGCGTCACGTGGATTG | 0.17
8 | TGTTGCACGTGACGCG | 0.09
9 | ATATCCACGTGCGGGT | 0.01
10 | GCGTTCACGTGGTGGC | 0.35
11 | CAGGACACGTGAGTTT | 0.39
12 | GTGCTCACGTGGTTCT | 0.32
13 | AGGCTCACGTGATGGG | 0.4
14 | CGTTGCACGTGGATGG | -0.06
15 | GTATACACGTGTGAGT | 0.13
16 | GGTGGCACGTGTAGAC | -0.06
17 | AATGTCACGTGAAGCG | 0.44
18 | ATAGTCACGTGGCAGG | -0.05
19 | GCGGGCACGTGGGGGT | -0.27
20 | AGGACCACGTGGTGGG | -0.11
21 | TCGCGCACGTGAGTGG | 0.08
22 | GGACGCACGTGGATGG | -0.09
23 | GAGTTCACGTGTCTGT | 0.36

Row | Sequence | relative binding free energy [kcal/mol]
24 | TTTTGCACGTGCATTC | 0.09
25 | ACGTACACGTGGTGGG | 0.07
26 | TGCTCCACGTGTTTGT | -0.07
27 | TATTTCACGTGGGTAA | 0.28
28 | TTCAACACGTGTTTTA | 0.11
29 | TTCGTCACGTGTGCAG | 0.08
30 | TGTATCACGTGTAGGC | 0.1
31 | TTTTTCACGTGCCGTA | 0.32
32 | GGTCTCACGTGGCGTA | 0.21
33 | AATGTCACGTGATAAG | 0.22
34 | GCAGGCACGTGGTCGT | -0.22
35 | GGGGTCACGTGTTTCA | 0.15
36 | AAGGTCACGTGTGAGT | 0.17
37 | GAGTGCACGTGTTGTC | 0.07
38 | GGGGCCACGTGGGCCG | -0.13
39 | TTTGTCACGTGAATTC | 0.31
40 | GCTGACACGTGTATGG | 0.02
41 | TTCATCACGTGATTGG | 0.37
42 | TAATGCACGTGTGGAG | -0.04
43 | GTGGACACGTGGATGC | 0.2
44 | CGGGTCACGTGGGGCC | 0.08
45 | AATTGCACGTGAGGTG | 0.24
46 | GGCGTCACGTGTTGAG | 0.2

Row | Sequence | relative binding free energy [kcal/mol]
47 | TGCTTCACGTGGGAAG | 0.15
48 | GATGACACGTGAGGGT | 0.23
49 | GTGAACACGTGTATGG | 0.05
50 | TAGGACACGTGGTGCT | -0.05
51 | TAAAGCACGTGGGCTG | -0.18
52 | GCGTACACGTGGGATG | 0.07
53 | CGTGTCACGTGCGAGT | -0.03
54 | TGAGACACGTGGAGTT | 0
55 | AGGACCACGTGTAGGT | -0.03
56 | TGATGCACGTGTTCAG | 0.04
57 | TAATTCACGTGGTCAT | 0.35
58 | GTTTTCACGTGTTATG | 0.37
59 | GAAGGCACGTGGGCTG | -0.15
60 | GTAAACACGTGAGTTA | 0.23
61 | AATTGCACGTGGAGAG | -0.04
62 | GTTGGCACGTGACCGG | 0
63 | TTGAACACGTGGAGTG | -0.04
64 | TTCCGCACGTGGTTTG | 0.01
65 | TGTGTCACGTGTTACT | 0.12
66 | GGAGGCACGTGAGGCA | 0.23
67 | TGTTTCACGTGGCTGA | 0.17
68 | GTAAGCACGTGAATTT | 0.18
69 | ATAGTCACGTGTTAAG | 0.08

Row | Sequence | relative binding free energy [kcal/mol]
70 | ATATACACGTGTAGGA | -0.1
71 | TGCTTCACGTGGGCTG | 0.08
72 | TTTTACACGTGAAGTT | 0.37
73 | AGTTCCACGTGGAGGT | 0.06
74 | TGCCACACGTGTTGGG | -0.02
75 | AGGTGCACGTGGAACG | -0.14
76 | TGGCTCACGTGCGGGG | 0.04
77 | TTAGACACGTGTTACG | 0.04
78 | ACGTTCACGTGGGGCG | 0.08
79 | AAGGTCACGTGTGTCG | 0.02
80 | TTAAGCACGTGCCTGG | -0.01
81 | TTGGTCACGTGAGGGT | 0.26
82 | TAAGACACGTGGTTGA | -0.11
83 | GCTCGCACGTGCGGGG | -0.16
84 | CGTTACACGTGGTAAG | 0.06
85 | GGAGACACGTGGATGG | 0.06
86 | TTTGCCACGTGTTGGT | -0.07
87 | GATGCCACGTGGGTGG | -0.11
88 | GATGGCACGTGGCAGG | -0.15
89 | TATTTCACGTGTATTC | 0.26
90 | TGATTCACGTGTATAG | 0.27
91 | CTATTCACGTGGGTGT | 0.21
92 | GATGTCACGTGTGGTC | 0.16

Row | Sequence | relative binding free energy [kcal/mol]
93 | TTGTCCACGTGGGAGA | -0.07
94 | GGAGTCACGTGGTCTT | 0.05
95 | AATTGCACGTGTGAGC | 0.24
96 | TTAGGCACGTGGCAGG | -0.28
97 | TGGGGCACGTGTTTGT | -0.02
98 | ATTAACACGTGTCTTT | -0.09
99 | GACGGCACGTGGCGGT | -0.17
100 | GTCGTCACGTGTTGAG | 0.12
101 | TGGGGCACGTGAGGCG | 0.14
102 | TTTTGCACGTGATCTG | 0.08
103 | ATTAACACGTGGGAGT | -0.07
104 | TGGGACACGTGTATTG | 0.05
105 | ATGTTCACGTGATGGC | 0.34
106 | CATTTCACGTGTGATG | 0.3
107 | ATATTCACGTGTGATG | 0.37
108 | GGTTTCACGTGATGCT | 0.32
109 | GGGTGCACGTGTTTCG | -0.03
110 | TTGGTCACGTGATAGG | 0.16
111 | CGTAGCACGTGGGGCT | -0.28
112 | GGGTCCACGTGATTGT | 0.24
113 | CAAGGCACGTGGTGGG | -0.18
114 | TTAGTCACGTGTCCGG | 0.14
115 | TTCGGCACGTGTGATA | 0.1
